# Hit rate of the full screen: of about 310,000 compounds, about 2,200 (0.71%) showed an effect of 50% or more. The effect is printed as a negative number. The list shows a part of the results.
# Molecular target: human ether-à-go-go-related gene (hERG) potassium channel (human, UniProt Q12809)
# Assay: primary screen, population patch clamp on CHO cells stably expressing hERG
# Sequence of human ether-à-go-go-related gene (hERG) potassium channel (Q12809 whole entry, looked up): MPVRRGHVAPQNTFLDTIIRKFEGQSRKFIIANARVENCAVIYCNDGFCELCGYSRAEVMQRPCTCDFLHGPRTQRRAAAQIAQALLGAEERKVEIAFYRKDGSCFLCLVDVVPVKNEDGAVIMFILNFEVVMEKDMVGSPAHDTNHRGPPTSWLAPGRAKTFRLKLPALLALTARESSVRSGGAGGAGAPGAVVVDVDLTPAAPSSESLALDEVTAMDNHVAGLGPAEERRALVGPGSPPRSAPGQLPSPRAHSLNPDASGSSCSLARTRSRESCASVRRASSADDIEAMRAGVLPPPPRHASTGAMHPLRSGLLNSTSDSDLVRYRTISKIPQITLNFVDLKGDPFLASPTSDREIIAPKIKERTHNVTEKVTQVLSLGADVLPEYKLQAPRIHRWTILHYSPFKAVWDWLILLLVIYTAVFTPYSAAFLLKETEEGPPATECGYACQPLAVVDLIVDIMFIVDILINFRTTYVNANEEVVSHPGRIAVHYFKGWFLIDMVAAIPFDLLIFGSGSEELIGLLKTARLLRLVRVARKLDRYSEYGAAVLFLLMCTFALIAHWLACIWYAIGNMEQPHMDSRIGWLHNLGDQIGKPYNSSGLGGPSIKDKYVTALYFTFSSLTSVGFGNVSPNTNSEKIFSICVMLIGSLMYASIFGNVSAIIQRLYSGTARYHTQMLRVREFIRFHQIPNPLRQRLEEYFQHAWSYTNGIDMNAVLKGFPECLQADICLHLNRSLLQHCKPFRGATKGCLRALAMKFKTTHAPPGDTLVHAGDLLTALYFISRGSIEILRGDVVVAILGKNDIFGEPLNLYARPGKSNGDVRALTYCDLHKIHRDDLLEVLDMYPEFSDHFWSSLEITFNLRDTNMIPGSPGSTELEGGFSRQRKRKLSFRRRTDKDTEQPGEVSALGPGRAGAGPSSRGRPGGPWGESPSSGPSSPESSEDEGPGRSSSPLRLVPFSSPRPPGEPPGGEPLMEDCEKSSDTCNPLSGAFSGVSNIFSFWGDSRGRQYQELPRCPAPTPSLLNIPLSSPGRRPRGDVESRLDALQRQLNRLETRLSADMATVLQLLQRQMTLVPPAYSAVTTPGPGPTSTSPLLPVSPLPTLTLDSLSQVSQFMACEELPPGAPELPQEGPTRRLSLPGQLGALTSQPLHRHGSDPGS
row,SMILES,"hERG current change (%, negative = inhibition) at 1uM [%]"
1,CCc1sc(-c2c(C#N)c(N)nc3c2CCCCCC3)cc1[N+](=O)[O-],11.8
2,COCCNC(=S)N(CCCO)Cc1cc2cc3c(cc2[nH]c1=O)OCCO3,11.3
3,COc1ccc(Cc2nnc(NC(=O)Nc3cccc(OC)c3)s2)cc1,10.8
4,CN(C)S(=O)(=O)c1ccc(Cl)c(NC(=O)COC(=O)CCC(=O)c2cccs2)c1,12.7
5,CCN(CC(=O)NC1CCS(=O)(=O)C1)C(=O)COc1ccccc1-c1ccccc1 (stereo not drawn),9.06
6,NNC(=O)Cn1c(-c2ccccc2)cc(=O)n2ncnc12,4.8
7,CC1CCCCN1C(=O)c1ccc(CS(=O)(=O)Cc2ccccc2)cc1 (stereo not drawn),4.8
8,CC(C)Cc1nnc(NC(=O)CCNC(=O)c2ccco2)s1,16.9
9,O=C(N/N=C1\CCS(=O)(=O)c2ccc(F)cc21)c1ccc([N+](=O)[O-])cc1,4.44
10,Cc1cc(-c2ccc(C(C)C)c(S(=O)(=O)NCCN3CCC(C)CC3)c2)on1,11.6
11,CCN(CC)CC(O)c1cccn1-c1ccc(CNC(=O)NC(C)C)cc1 (stereo not drawn),16.6
12,COc1ccc(C)cc1NC1=NC(C)(C)CS1,7.42
13,CC(C)(C)NS(=O)(=O)c1ccc(CCC(=O)Nc2cc(Cl)ccc2Oc2ccccc2)cc1,0.892
14,COc1c(C)cccc1C(=O)Nc1ccc(OCC(=O)N2CCOCC2)cc1C,26.4
15,CCOc1ccc(CN(C)C(=O)c2cccnc2SC)cc1OC,11.8
16,COc1cccc(C(=O)NCCS(=O)(=O)N2CC(C)CC(C)C2)c1 (stereo not drawn),3.24
17,O=C(Nc1ccc([N+](=O)[O-])cc1)c1cc(Cl)sc1Cl,8.99
18,O=C(Nc1ccc(Br)c(Br)c1)C1CCCO1 (stereo not drawn),7.17
19,NC(=O)NO,3.07
20,COC(=O)C1=C(c2ccc(-c3ccccc3)c(F)c2)C[C@@H]2CC[C@H]1N2C(=O)N1CCCCC1,17.6
21,N/C(CN1CCCC1=O)=N\OC(=O)c1ccc(Cl)cc1,5.34
22,COc1ccccc1C(=O)N1CCN(c2cccc(C(F)(F)F)c2)CC1,2.93
23,O=c1c2sccc2nc(SCc2cc(=O)n3ccccc3n2)n1-c1ccc(Br)cc1,-4.46

row,SMILES,"hERG current change (%, negative = inhibition) at 1uM [%]"
1,Cl.OC(CNCc1cccc(Cl)c1)c1ccccc1 (stereo not drawn),5.16
2,Cc1ccc(Cn2cccc(NC(=O)c3ccco3)c2=O)cc1,8.08
3,CN1CCN(C(=O)c2cc(COc3ccccc3)on2)[C@@H](c2ccccc2)C1,7.57
4,CC1CCc2c(sc3nc4n(c(=O)c23)CCS4)C1 (stereo not drawn),-1.73
5,CC1(O)C[C@]2(C)N(O)C3CCCC[C@@H]3N2O1 (stereo partly drawn),12.7
6,Cn1cc(C(=O)Cc2ccccc2)c2ccccc21,3.47
7,COc1ccccc1NC(=O)CSc1nnc(-c2ccc(C)cc2)o1,7.18
8,CC1CCN(S(=O)(=O)c2ccccc2[N+](=O)[O-])CC1,7.88
9,CN(Cc1cccc(F)c1)C(=O)c1ccc(S(=O)(=O)C(F)F)cc1,-4.26
10,Cc1c(C(=O)OCCOC(C)C)[nH]c2c1C(=O)CC(C)(C)C2,4.98
11,CCOc1ccc(CNC2CCCc3ccccc32)cc1.O=C(O)C(=O)O (stereo not drawn),-8.67
12,O=C(NNC(=O)c1cc(OCC(F)(F)F)ccc1OCC(F)(F)F)c1cccc(C(F)(F)F)c1,-4.84
13,c1cn(CC2(Cn3ccnc3)COC2)cn1,5.69
14,O=c1[nH]snc1-c1c(Cl)cccc1Cl,18
15,COc1ccc(CNC(=O)COC(=O)/C=C/c2ccco2)cc1,-2.54
16,CC(C)[C@H]1C(=O)N2CCC[C@H]2[C@]2(O)O[C@](NC(=O)[C@@H]3C=C4c5cccc6[nH]cc(c56)C[C@H]4N(C)C3)(C(C)C)C(=O)N12,5.51
17,CCN(CC)S(=O)(=O)c1cc(NC(=O)Cc2ccsc2)ccc1C,11.8
18,c1cn(CCCNC2CCCCCCC2)cn1,15
19,COc1ccc2c(c1)c(=O)oc1cc(O)ccc12,10.6
20,COc1cccc([C@@H]2CC=C(C(=O)O)[C@H](c3ccc(F)cc3)N2S(=O)(=O)c2ccc(C)cc2)c1,9.65
21,CC(c1ccc(F)cc1)n1c(-c2ccc3ccccc3n2)n[nH]c1=S (stereo not drawn),9.02
22,COC(=O)c1ccc(NC(=O)CC2C(=O)N(c3ccc(C)cc3)C(=O)N2CC(C)C)cc1 (stereo not drawn),3.4

# Source: article PMC4336329 (PLoS ONE, 2015)
